The record followed here is PMC11335292.

Sequences of proteins named here, by UniProt entry; tags and fusion partners are left off. A change or cut given only in a name is not applied to a line headed by its entry. A line that says so, or that is headed by a name, gives the form on record, which may keep a tag or linker. Residues count along the entry.
UniProt P52480: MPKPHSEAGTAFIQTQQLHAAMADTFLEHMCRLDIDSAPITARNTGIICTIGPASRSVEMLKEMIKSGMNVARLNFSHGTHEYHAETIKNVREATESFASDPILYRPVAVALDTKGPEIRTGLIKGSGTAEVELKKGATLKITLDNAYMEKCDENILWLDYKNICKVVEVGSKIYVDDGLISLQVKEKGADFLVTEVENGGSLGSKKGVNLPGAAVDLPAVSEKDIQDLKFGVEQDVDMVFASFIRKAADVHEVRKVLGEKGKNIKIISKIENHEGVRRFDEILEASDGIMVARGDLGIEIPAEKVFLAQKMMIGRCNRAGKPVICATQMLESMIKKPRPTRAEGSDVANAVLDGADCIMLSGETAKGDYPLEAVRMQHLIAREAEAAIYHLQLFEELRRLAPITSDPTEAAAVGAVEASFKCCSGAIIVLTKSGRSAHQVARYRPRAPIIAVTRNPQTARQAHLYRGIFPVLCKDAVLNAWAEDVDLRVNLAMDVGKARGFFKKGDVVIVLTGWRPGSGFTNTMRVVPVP
PKM2 without C domain: residues 1-389 of P52480
PKM2 without N domain: residues 44-531 of P52480
PKM2ΔB (P52480, form named): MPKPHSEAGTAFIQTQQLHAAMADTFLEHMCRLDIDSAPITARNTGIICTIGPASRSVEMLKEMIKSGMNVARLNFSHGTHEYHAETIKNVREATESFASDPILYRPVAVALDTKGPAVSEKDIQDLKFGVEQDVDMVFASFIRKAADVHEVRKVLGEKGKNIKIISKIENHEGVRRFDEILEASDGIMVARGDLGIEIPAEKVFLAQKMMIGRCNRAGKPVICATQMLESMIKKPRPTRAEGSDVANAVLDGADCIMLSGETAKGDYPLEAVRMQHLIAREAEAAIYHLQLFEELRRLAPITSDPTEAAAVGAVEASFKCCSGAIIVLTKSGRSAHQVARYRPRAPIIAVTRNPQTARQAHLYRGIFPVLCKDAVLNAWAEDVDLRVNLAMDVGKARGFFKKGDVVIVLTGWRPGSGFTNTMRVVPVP
PKM2 without A domain (P52480, form named): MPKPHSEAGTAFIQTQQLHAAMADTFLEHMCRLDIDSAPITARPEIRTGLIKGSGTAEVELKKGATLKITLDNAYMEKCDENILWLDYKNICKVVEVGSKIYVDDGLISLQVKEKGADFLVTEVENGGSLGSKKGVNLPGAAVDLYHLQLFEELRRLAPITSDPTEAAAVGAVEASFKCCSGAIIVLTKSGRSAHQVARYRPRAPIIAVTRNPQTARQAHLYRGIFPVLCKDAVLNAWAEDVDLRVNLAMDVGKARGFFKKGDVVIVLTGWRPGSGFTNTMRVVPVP
UniProt O35129: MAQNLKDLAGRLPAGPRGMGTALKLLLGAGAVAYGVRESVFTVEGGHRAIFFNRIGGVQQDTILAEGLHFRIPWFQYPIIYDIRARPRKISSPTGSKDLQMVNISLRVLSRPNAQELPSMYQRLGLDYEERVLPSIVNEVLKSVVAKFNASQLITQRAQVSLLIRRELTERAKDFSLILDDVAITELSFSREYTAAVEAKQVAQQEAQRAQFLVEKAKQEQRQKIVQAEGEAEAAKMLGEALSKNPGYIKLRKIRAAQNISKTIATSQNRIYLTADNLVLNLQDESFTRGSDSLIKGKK
PHB2 without C-terminal domain (mouse (HL-1 cell cDNA)): residues 1-264 of O35129
PHB2 without N-terminal domain (mouse (HL-1 cell cDNA)): residues 51-299 of O35129
PHB2 without PHB domain (mouse (HL-1 cell cDNA)) (O35129, form named): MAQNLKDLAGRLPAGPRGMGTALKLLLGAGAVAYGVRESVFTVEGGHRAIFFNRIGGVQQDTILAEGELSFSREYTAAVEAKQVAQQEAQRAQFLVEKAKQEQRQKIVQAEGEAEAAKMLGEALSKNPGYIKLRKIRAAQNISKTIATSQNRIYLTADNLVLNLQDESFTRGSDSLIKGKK
PHB2 without CC domain (mouse (HL-1 cell cDNA)) (O35129, form named): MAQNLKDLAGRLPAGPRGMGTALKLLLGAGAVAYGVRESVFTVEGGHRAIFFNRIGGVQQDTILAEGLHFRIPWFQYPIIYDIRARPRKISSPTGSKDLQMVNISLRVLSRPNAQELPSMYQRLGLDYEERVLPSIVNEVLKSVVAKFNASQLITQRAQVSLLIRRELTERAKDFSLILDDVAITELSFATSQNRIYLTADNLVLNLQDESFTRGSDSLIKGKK

The target in experiment [1] is PKM2 without N domain (UniProt P52480). Nature of the experiment: co-IP; HL-1 cells transfected with domain-deletion mutants of PKM2 or of PHB2; IP buffer 150 mM NaCl, 10% glycerol, 20 mM Tris-HCl pH 7.4, 2 mM EDTA, 0.5% Nonidet P-40, 0.5% Triton X-100, 4 °C overnight; western blot.
In experiment [2] the target is PKM2ΔB (UniProt P52480). Described as above.
The target in experiment [3] is PKM2 without C domain (UniProt P52480). The description is as above.
Experiment [4] has as its target PKM2 without A domain (UniProt P52480). Described as above.
Experiment [5] deals with Prohibitin 2 (mouse (endogenous in HL-1)) (UniProt O35129). Nature of the experiment: co-IP; endogenous PKM2 and PHB2 in HL-1 cells, physiological condition or LPS; IP buffer 150 mM NaCl, 10% glycerol, 20 mM Tris-HCl pH 7.4, 2 mM EDTA, 0.5% Nonidet P-40, 0.5% Triton X-100, 4 °C overnight; western blot. A general note: In western blotting, separated proteins are transferred to a membrane and probed.

In experiment [6] the target is PHB2 without PHB domain (mouse (HL-1 cell cDNA)) (UniProt O35129). Briefly: co-IP; HL-1 cells transfected with domain-deletion mutants of PKM2 or of PHB2; IP buffer 150 mM NaCl, 10% glycerol, 20 mM Tris-HCl pH 7.4, 2 mM EDTA, 0.5% Nonidet P-40, 0.5% Triton X-100, 4 °C overnight; western blot.
Experiment [7] concerns the target PHB2 without C-terminal domain (mouse (HL-1 cell cDNA)) (UniProt O35129). The description is as above.
Experiment [8] has as its target PHB2 without CC domain (mouse (HL-1 cell cDNA)) (UniProt O35129). Described as above.
Experiment [9] addresses PHB2 without N-terminal domain (mouse (HL-1 cell cDNA)) (UniProt O35129). The experiment is described as above.
Experiment [10] has as its target Prohibitin 2 (mouse (endogenous in HL-1)) (UniProt O35129). Briefly: co-IP; HL-1 cells, with or without LPS; dimeric and tetrameric forms of PKM2 with PHB2; how the forms were told apart is not stated.

Results are given in words; binding and its absence hold for the method and conditions named. In cells and extracts the contact can be indirect. Some results given as binding are weak or reduced against the parent protein; the word gives no strength.

In the case of “Prohibitin 2 (from UniProt O35129 1-299)”, the binding entry in experiment [1] is listed as “binds”; in [2] it was “no binding”; in experiment [3] it was “binds”; in experiment [4], “binds”.
“Pyruvate kinase M2 (from UniProt P52480 1-531) (enzyme)”: the binding result is reported as “binds” in experiment [5]; “no binding” in experiment [6]; “binds” in experiment [7]; “binds” in experiment [8]; “binds” in [9].
For “dimeric PKM2 (from UniProt P52480 1-531) (enzyme)”, the binding entry in experiment [10] is “binds”.
